The list shows a part of the results.
Target: Neu5Gc(b2-6)Gal(b1-4)GlcNAc
Test: glycan array binding signal (z-score within array); higher = stronger binding
Settings: glycan notation: IUPAC condensed, linker removed
How it was run: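 The binding signal is a Z-score computed within each array and averaged over linkers. Arrays of the same protein sequence at different concentrations or buffers were also averaged together. Data originate from 3228 arrays in the Consortium for Functional Glycomics database, kept only where the protein sequence was available.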

B1: Pwp5 ND (Candida glabrata) (protein)
chain: MGSSHHHHHHSSGLVPRGSHMASANPVPLTNVCYFPEEYPRQAGFRAITAGLASTILQGSVDELLNYSGLSSLTTQQTTTTTPNFQLPTLPLPTNVYGLTVVPLYLLVQLQGYFVPPVSGQYTFSLENTNDAAIIFFGNPSAFPCGDLSAWPQASADDITVTDGTFPSRTLFLKAGVAYPMRISYYNSLGSGNLAVSFTDPGGTKRTNWNGYIWRYNSCSTCTYT
Q: For B1, which “glycan array binding signal (z-score)” value is on record?
A: Its value is -0.439.

Reference: the supplement of paper PMC8728848
